About 540 (0.36%) of roughly 150,000 compounds showed an effect of 50% or more. The list shows a part of the results.

This experiment concerns Plasmodium falciparum. The experiment is described as follows: Primary screen in NF54 nanoGlo assay, in single point, at 2uM, 72h; a lower Z score goes with more inhibition. The class given is functional, Erythrocyte. Conditions: timepoint 72 hour.
Take `O=C(CCc1ccccc1)N1CC(Oc2nccs2)C1`: the % Inhibition (in general, the change of the read-out against control, counted positive when it falls) was -21% and the Z score is listed as 3.65.

On to `CCOC(=O)c1sc2nc(-c3cccc(Cl)c3)c(NCc3ccc(C)cc3)n2c1C`, for which the “% Inhibition” value was 8% and the Z score is -0.85.

Turning to `CN(CCCCN1CCOCC1)C(=O)c1ccc(-c2ccncc2)cc1`, the “% Inhibition” value is recorded as -1% and the Z score was found to be 0.11.

`CN1Cc2ccccc2C[C@H]1C(=O)NCc1ccc(S(N)(=O)=O)cc1`: the “% Inhibition” value is recorded as -12% and the Z score is 1.58.

Regarding `COCC1(NC(=O)[C@@H](N)CC2CCCCC2)CCCC1`, the “% Inhibition” value is 0% and the Z score is given as -0.03.

In the case of `CCn1nc(C)c(C(=O)NC(C)(C)C2CCC2)n1`, the “% Inhibition” value is -7% and the Z score amounted to 1.47.

For the compound `COc1cc(C(F)(F)F)nc(N2CCCC(=O)[C@@H]2C)n1`, the “% Inhibition” value is reported as -10% and the Z score worked out at 1.17.

Turning to `COc1ccnc([C@H](C)NCc2scnc2C)c1`, the “% Inhibition” value was found to be 0% and the Z score was -0.04.

As for `CCCCN(Cc1cccn1Cc1ccc(Br)cc1)C(=O)CN(CCC(C)C)C(=O)c1ccc2c(c1)OCO2`, the “% Inhibition” value is listed as -5% and the Z score is on record as 0.75.

On to `COc1ccc(OC)c(S(=O)(=O)N2CC[C@@H]3COCCN(Cc4ccccc4)[C@@H]3C2)c1`, for which the “% Inhibition” value is -11% and the Z score worked out at 1.45.

With `O=C(NCc1ccc(F)cc1)c1n[nH]c2c1CCCC2`, the “% Inhibition” value came to 32% and the Z score was -3.62.

Take `CC(=O)OCC(=O)N1CCC(CCc2ccc3c(c2)OCO3)CC1`: the “% Inhibition” value was 18% and the Z score is listed as -2.75.

For the compound `Cc1onc(-c2ccccc2)c1C(=O)c1c[nH]c(C(=O)NCc2ccncc2)c1`, the “% Inhibition” value worked out at 38% and the Z score is listed as -4.95.

`COc1ccc(-c2nccn2C[C@H]2CCCCO2)cc1OC`: the “% Inhibition” value is given as -10% and the Z score turned out to be 1.36.

Consider `CCCNC(=O)c1cc(OC)c(OC)c(OC)c1`, for which the “% Inhibition” value is -5% and the Z score worked out at 0.58.

In the case of `OCC1CCN([C@H]2CN(Cc3ccc(-c4cc[nH]n4)s3)C[C@@H]2O)CC1`, the “% Inhibition” value is -1% and the Z score was found to be 0.12.

Take `CC1CC(C)CN(S(=O)(=O)c2ccc(F)c(C(=O)NC3CCCCC3C)c2)C1` (stereo not given): the “% Inhibition” value is on record as -4% and the Z score is on record as 0.75.

As for `Cc1nsc(N[C@H]2CC(=O)N(c3ccccc3)C2)n1`, the “% Inhibition” value is on record as 0% and the Z score was -0.02.

In the case of `CCN(CC(C)(C)O)C(=O)Nc1cc(C)on1`, the “% Inhibition” value is listed as -3% and the Z score was determined as 0.3.

In the case of `Cc1cc(CC(=O)N2CCCCCC2CC(O)c2ccccc2)no1` (stereo not given), the “% Inhibition” value is -15% and the Z score worked out at 1.28.

Regarding `Cc1c(Cl)ccc2c(N(C)Cc3ccccc3)c(C(=O)O)cnc12`, the “% Inhibition” value was -2% and the Z score amounted to 0.23.

As for `COc1ccc([C@H](CNC(=O)C2(O)CCC2)N2CCCCC2)cc1`, the “% Inhibition” value came to 4% and the Z score was -0.72.

`Fc1ccc(C2(c3nc([C@H]4CCOC4)no3)CC2)cc1`: the “% Inhibition” value is reported as -2% and the Z score was found to be 0.33.

In the case of `COc1c[nH]c(C(=O)NC2CCN(Cc3ccccc3)CC2)cc1=O`, the “% Inhibition” value was 60% and the Z score is given as -7.68.

Turning to `O=C(NCc1ccc(N2CCOCC2)cc1)C1CCN(Cc2c(F)cccc2Cl)CC1`, the “% Inhibition” value is listed as -13% and the Z score was 2.3.

As for `Nc1nc2c(c(NC[C@H]3CCN(c4ccccc4)C3)n1)CCNCC2`, the “% Inhibition” value is -13% and the Z score is listed as 2.02.

For the compound `COc1ccc(CCNC(=O)CN2CCCO[C@@H](CN3CCCCC3)C2)cc1`, the “% Inhibition” value is reported as -5% and the Z score was 0.43.

`O=C(Oc1ccc(N2CCCC2=O)cc1)c1ccc[nH]1`: the “% Inhibition” value was found to be 1% and the Z score is listed as -0.07.

For the compound `CCOCCCn1c(NC(=O)c2cc3ccccc3n2CC)nc2ccccc21`, the “% Inhibition” value is reported as -3% and the Z score was found to be 0.37.

On to `C[C@@H](CNC(=O)C1=Cc2ccccc2OC1)c1ccccc1`, for which the “% Inhibition” value is given as -9% and the Z score is reported as 0.84.

For `Cc1cc(C(=O)Nc2ccc3c(c2)C(=O)NC3)on1`, the “% Inhibition” value came out at 4% and the Z score is recorded as -0.66.

On to `c1ccc(-c2nc[nH]c2-c2cccn2-c2nccs2)cc1`, for which the “% Inhibition” value is listed as 7% and the Z score was -1.31.

In the case of `Cc1ccccc1OC1CN(C(=O)[C@@H]2CCCN2C2CCN(C)CC2)C1`, the “% Inhibition” value is -5% and the Z score worked out at 0.74.

With `Cc1cc(C)cc(NC(=O)[C@H]2CC23CCN(Cc2ccc4c(c2)OCO4)CC3)c1`, the “% Inhibition” value was -4% and the Z score turned out to be 0.48.

As for `C[C@@H](Cc1ccccn1)n1cnc2ccccc2c1=O`, the “% Inhibition” value was -7% and the Z score came out at 1.

Regarding `Cc1cccc(OCCNCCO)c1C`, the “% Inhibition” value is given as -10% and the Z score turned out to be 1.31.

As for `CCN(C[C@H]1CCCO1)C(=O)c1c[nH]c2ncccc12`, the “% Inhibition” value was -3% and the Z score amounted to 0.28.

As to `CCOc1ccc(Cl)cc1CN(C)C(=O)[C@@H]1CCCCN1C`, the “% Inhibition” value was -12% and the Z score was determined as 1.18.

`CN1C(=O)[C@H](CC(=O)N(Cc2ccsc2)C2CCCC2)N(C)C1=O`: the “% Inhibition” value is given as -5% and the Z score is listed as 0.83.

For the compound `O=C(NC[C@H]1CCCN(c2ccncc2)C1)c1ccon1`, the “% Inhibition” value is recorded as 6% and the Z score is -0.86.

As to `COCCCNC(=O)CN(C)C(=O)[C@H](C)Oc1ccc(F)cc1`, the “% Inhibition” value was -2% and the Z score is listed as 0.44.

As for `CC(=O)c1cccc(OS(=O)(=O)c2ccc3c(c2)CCN3C(C)=O)c1`, the “% Inhibition” value is given as -10% and the Z score is 0.93.

Consider `Cc1nnsc1C(=O)N1CC[C@H](O)[C@@H]1C`, for which the “% Inhibition” value is listed as -9% and the Z score was found to be 1.01.

As to `Cc1nccc(OC2CCN(C(=O)c3ccoc3)CC2)n1`, the “% Inhibition” value is given as -7% and the Z score is 1.36.

With `NC(=O)NCC1CCCC(C(F)(F)F)C1` (stereo not given), the “% Inhibition” value is listed as -4% and the Z score is listed as 0.54.

`CCn1nc(-c2ccc(OC)c(S(=O)(=O)N(C)c3ccccc3)c2)c2c(c1=O)CCCC2`: the “% Inhibition” value was -5% and the Z score was 0.76.

Regarding `N#Cc1nc(C2CC2c2ccccc2)oc1N1CCN(C(c2ccccc2)c2ccccc2)CC1` (stereo not given), the “% Inhibition” value is listed as -18% and the Z score is on record as 2.44.

For the compound `Cc1csc(N(C)C(=O)c2cccc(=O)n2CCOc2ccccc2Cl)n1`, the “% Inhibition” value was 1% and the Z score is recorded as -0.15.

As for `Cc1cccc2nc(C(=O)N3CCOC[C@@H]3CC(=O)N3CCCC3)c(F)n12`, the “% Inhibition” value was 3% and the Z score is on record as -0.54.

As to `CC1(C)[C@@H](O)CCN1C(=O)c1cscc1Cl`, the “% Inhibition” value is reported as -5% and the Z score worked out at 0.96.

Consider `CC(C)CNc1nc(C(=O)Nc2cccnc2)cs1`, for which the “% Inhibition” value is -17% and the Z score was determined as 1.47.

`Cc1c(NC(=O)c2cnn(-c3cccc(Cl)c3)c2C)cccc1C(=O)N1CCCC1`: the “% Inhibition” value is listed as -1% and the Z score came to 0.18.

With `CN(C)c1cncc(NCC[C@H]2CCCOC2)n1`, the “% Inhibition” value was -9% and the Z score came to 1.65.

Regarding `O=C(CCC(=O)c1ccccc1)NC1CCC(O)CC1` (stereo not given), the “% Inhibition” value is given as 35% and the Z score is listed as -0.88.

On to `Brc1cc2c(cc1CN1CCC[C@H](Cn3cncn3)C1)OCCCO2`, for which the “% Inhibition” value is given as -4% and the Z score was found to be 0.38.

(Values after ChEMBL document CHEMBL4888484, “Replenishing the malaria drug discovery pipeline: Screening and hit evaluation of the MMV Hit Generation Library 1 (HGL1) against asexual blood stage Plasmodium falciparum ,using a nano luciferase reporter read-out” (2022).)
